This assay deals with T1, catalytic domain of caspase-9 (residues 140-416) (human, UniProt P55211 140-416).
T1 construct: also called purified caspase-9
T1 sequence (looked up): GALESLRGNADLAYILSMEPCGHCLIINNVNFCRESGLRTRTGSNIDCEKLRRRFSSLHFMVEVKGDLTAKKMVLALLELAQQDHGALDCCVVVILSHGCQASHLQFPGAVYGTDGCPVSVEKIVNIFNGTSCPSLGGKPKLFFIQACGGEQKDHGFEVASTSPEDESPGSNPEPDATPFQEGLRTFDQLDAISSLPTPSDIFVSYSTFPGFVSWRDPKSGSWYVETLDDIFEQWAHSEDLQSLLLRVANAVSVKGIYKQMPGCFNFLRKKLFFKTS
Nature of the assay: surface acoustic wave (SAW); caspase-9 immobilised, NleF injected; sam5 BLUE and GREEN instruments; model derived from 1:1 binding; BSA and Protein A references subtracted. As to conditions: both partners purified.

B1: purified recombinant NleF (natural protein)
chain: not shown
notes: source: recombinant, purified
B1 registered a Kd of approximately 39 nM.

The values are drawn from paper PMC3597564, “The E. coli Effector Protein NleF Is a Caspase Inhibitor” (PLoS ONE, 2013).
